Measurements published in patent US20260201008A1, “SECRETIN-DERIVED GLP1R SELECTIVE AGONISTS” (GUBRA A/S, priority 2023, published 2026).
At least one structure is not confirmed: it was looked up by name or label, or the drawing left a doubt. Numbered stars: 1 amine (or outer) side, 2 acyl side, 3 side chain; on linkers, the order of the positions; unused ones are H or OH. Square brackets hold non-standard residues; d marks the D form. Side chains are listed from the residue outwards. Peptide text beside a SMILES is read from it. * marks the point of attachment. C20 diacid = O=C(O)CCCCCCCCCCCCCCCCCCC(=O)*; γGlu = O=C(O)[C@H](CCC(=O)[*:2])N[*:1]; AEEA = NCCOCCOCC(=O)O; Aib = CC(C)(N)C(=O)O

How the values were obtained:
[1] = target: GLP1R (Homo sapiens, UniProt P43220); assay: hGLP1R potency, cAMP accumulation in CHO-K1 cells stably overexpressing hGLP1R; type: cell-based; design: host or cells: CHO-K1; details: Table 2, extended 30 amino acid peptides
Text: (§1) Crude library peptides are screened in 10-fold serial dilutions of 5 concentrations, n=1 time. Tip change is done for the first two serial dilutions. Compound starting concentration (top) will be adjusted throughout the study if needed.
(§2) Purified peptides are screened in 3-fold serial dilutions of 11 concentrations, n=2 times. Tip change is done for all serial dilutions. Compound starting concentration (top) will be adjusted throughout the study. If the top concentration is adjusted or a 5-fold difference in calculated EC50 values is observed, n is increased by 1. EC50 values were calculated by nonlinear regression using sigmoid concentration-response with variable slope.
(§3) A CHO-K1 cell line stably overexpressing the hGLP1R was obtained from Euroscreen (FAST-0145L), expanded, aliquoted and frozen. An aliquot was thawed and plated in DPBS with 0.05% casein and 0.5 mM IBMX as 2000 cells/well in a 384-well format. The cells were then immediately stimulated for 30 min at room temperature with graded doses of test compound using human GLP-1(7-36) (synthesized at Gubra) as a positive control. cAMP accumulation was measured using a Cisbio assay for Gs coupled receptors (cat. no. 62AM4PEC), where the assay reagents were added as per the manufacturer's instructions and time-resolved fluorescence energy transfer recorded after one hour on a CLARIOstar (BMG Labtech) plate reader.

[2] = target: SCTR (Homo sapiens, UniProt P47872); assay: hSCTR potency, cAMP accumulation in CHO-K1 cells stably overexpressing hSCTR; type: cell-based; design: alternatively Euroscreen ES-712-AF; FAST-0161L; host or cells: CHO-K1; details: Table 2, extended 30 amino acid peptides
Text: as §1, §2
as §3, with “Frozen division arrested CHO-K1 cells stably overexpressing the hSCTR were obtained from PerkinElmer (ES-712-AF). Alternatively, a CHO-K1” for “A CHO-K1”, “the hSCTR” for “the hGLP1R”, “Euroscreen (FAST-0161L),” for “Euroscreen (FAST-0145L),”, “human secretin” for “human GLP-1(7-36)”

Sequence of UniProt P43220 (P43220 24-463): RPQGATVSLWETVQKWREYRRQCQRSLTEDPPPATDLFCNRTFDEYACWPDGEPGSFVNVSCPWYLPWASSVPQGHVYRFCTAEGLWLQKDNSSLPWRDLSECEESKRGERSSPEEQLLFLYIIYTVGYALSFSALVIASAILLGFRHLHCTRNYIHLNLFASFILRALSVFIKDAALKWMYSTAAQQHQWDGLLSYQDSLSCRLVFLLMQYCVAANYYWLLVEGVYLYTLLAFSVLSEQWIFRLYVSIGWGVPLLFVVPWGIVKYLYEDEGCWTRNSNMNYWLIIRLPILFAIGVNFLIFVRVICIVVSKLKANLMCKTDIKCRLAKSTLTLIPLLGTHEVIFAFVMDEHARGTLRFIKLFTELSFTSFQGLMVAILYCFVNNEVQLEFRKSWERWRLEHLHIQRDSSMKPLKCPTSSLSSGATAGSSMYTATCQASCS
Sequence of UniProt P47872 (P47872 23-440): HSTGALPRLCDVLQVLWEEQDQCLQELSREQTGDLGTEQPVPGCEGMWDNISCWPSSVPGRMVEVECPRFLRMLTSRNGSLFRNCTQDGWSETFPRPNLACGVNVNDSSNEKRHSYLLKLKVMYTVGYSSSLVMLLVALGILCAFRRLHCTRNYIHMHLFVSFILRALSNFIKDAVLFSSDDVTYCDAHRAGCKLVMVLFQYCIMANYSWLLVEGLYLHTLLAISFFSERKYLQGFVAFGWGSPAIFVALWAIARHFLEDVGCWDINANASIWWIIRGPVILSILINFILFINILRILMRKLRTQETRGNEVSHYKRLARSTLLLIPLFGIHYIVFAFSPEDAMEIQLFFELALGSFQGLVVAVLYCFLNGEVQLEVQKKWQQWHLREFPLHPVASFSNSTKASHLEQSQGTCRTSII

For `CC(C)C[C@H](NC(=O)[C@H](Cc1ccccc1)NC(=O)[C@H](CCCNC(=N)N)NC(=O)[C@H](CCC(N)=O)NC(=O)[C@H](C)NC(=O)C(C)(C)NC(=O)[C@H](C)NC(=O)[C@H](CCC(=O)O)NC(=O)[C@H](CCC(=O)O)NC(=O)[C@H](CCCCNC(=O)COCCOCCNC(=O)COCCOCCNC(=O)CC[C@H](NC(=O)CCCCCCCCCCCCCCCCCCC(=O)O)C(=O)O)NC(=O)[C@H](CC(C)C)NC(=O)[C@H](CCCNC(=N)N)NC(=O)[C@H](CO)NC(=O)[C@@H](NC(=O)[C@H](CC(=O)O)NC(=O)[C@H](CO)NC(=O)[C@@H](NC(=O)[C@H](Cc1ccccc1)NC(=O)[C@@H](NC(=O)CNC(=O)[C@H](CCC(=O)O)NC(=O)C(C)(C)NC(=O)[C@@H](N)Cc1c[nH]cn1)[C@@H](C)O)[C@@H](C)O)C(C)C)C(=O)N[C@@H](CCC(=O)O)C(=O)N[C@@H](Cc1c[nH]cn1)C(=O)N[C@@H](CC(C)C)C(=O)N[C@H](C(=O)N[C@@H](CCC(=O)O)C(=O)N[C@@H](C)C(=O)N[C@@H](C)C(N)=O)C(C)C` [compound 215] (H-H[Aib]EGTFTSDVSRLK([AEEA-AEEA-γGlu-C20 diacid])EEA[Aib]AQRFLEHLVEAA-NH2), the “PEC50 hGLPR1” value [1] was 11.0 and the “pEC50 hSCTR” value [2] was 6.3.
